The record followed here is PubChem BioAssay AID360 (National Center for Advancing Translational Sciences (NCATS), 2006).

Out of some 48,000 compounds screened, about 550 (1.1%) were called active. About 4% were inconclusive and are not listed. Rule as the data show it: active = potency below about 15 µM; inconclusive = mostly about 16 µM to 33 µM; inactive = weaker than that. This is one part of the list.
Potency is read from the fitted curve at half-maximal effect.

Sequence of UniProt P04062 (P04062 whole entry, looked up): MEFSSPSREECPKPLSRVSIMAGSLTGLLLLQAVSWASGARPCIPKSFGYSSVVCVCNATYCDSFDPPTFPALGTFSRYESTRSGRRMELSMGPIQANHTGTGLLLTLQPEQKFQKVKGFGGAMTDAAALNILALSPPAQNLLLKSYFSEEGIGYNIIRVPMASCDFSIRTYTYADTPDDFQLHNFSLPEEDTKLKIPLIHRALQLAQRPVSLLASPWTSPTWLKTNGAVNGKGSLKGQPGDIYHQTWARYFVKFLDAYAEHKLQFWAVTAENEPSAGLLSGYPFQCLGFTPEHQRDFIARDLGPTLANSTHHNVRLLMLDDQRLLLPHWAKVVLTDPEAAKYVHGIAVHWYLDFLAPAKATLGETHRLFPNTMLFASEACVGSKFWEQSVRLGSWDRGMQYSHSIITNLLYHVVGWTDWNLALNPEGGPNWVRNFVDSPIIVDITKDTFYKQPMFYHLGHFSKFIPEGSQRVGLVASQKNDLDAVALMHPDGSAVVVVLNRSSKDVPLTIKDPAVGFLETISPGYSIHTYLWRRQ

The assay has as its target Lysosomal acid glucosylceramidase (Homo sapiens) (UniProt P04062). Kind of assay: Glucocerebrosidase.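 Also: the screen sought inhibitors.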 The conditions noted are these: purified enzyme, resorufin glucoside fluorescence (screen aimed at inhibitors), 20 min. Summed up:
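Normal human glucocerebrosidase (0.2 nM final) was assayed with resorufin β-D-glucopyranoside (30 uM final) in 50mM citric acid/KH2PO4, 10mM sodium taurocholate, 0.01% tween-20, pH 5.9. Compounds were titrated; fluorescence (Ex 548, Em 600) read after 20 min at RT.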
Consider `CNC(=O)Cn1nc(C)c2ccccc2c1=O`, for which the Potency was inactive: > 76.9 µM.

Consider `Cc1cc2nc(NC3=NCN(Cc4cccnc4)CN3)nc(C)c2cc1C`, for which the Potency is inactive: > 76.9 µM.

As for `CC(NC(=O)C(C)(C)C)c1nc2ccccc2n1C` (configuration not stated), the Potency was inactive: > 76.9 µM.

Regarding `O=C(O)c1ccccc1NS(=O)(=O)c1ccccc1C(F)(F)F`, the Potency is inactive: > 76.9 µM.

With `COC(=O)c1ccccc1NC(=O)NCc1ccc2c(c1)OCO2`, the Potency is inactive: > 76.9 µM.

For the compound `Cc1ccc(Cn2c(SCC(=O)Nc3cccc(C)n3)nc3c2c(=O)n(C)c(=O)n3C)cc1`, the Potency was inactive: > 76.9 µM.

Consider `COC(=O)CCS(=O)(=O)c1ccc(Cl)c(Cl)c1`, for which the Potency was inactive: > 76.9 µM.

On to `COCCCNC(=O)CCn1c(=O)c2ccccc2n(CC(=O)Nc2cc(Cl)ccc2C)c1=O`, for which the Potency is inactive: > 76.9 µM.

As to `CCOC(=O)N1CCN(C(=O)Nc2sc3nc4n(c(=O)c3c2C)CCC(C)CC4)CC1` (configuration not stated), the Potency was inactive: > 76.9 µM.

Regarding `Cc1c(NC(=O)c2cc(-n3cnnc3)ccc2Cl)cccc1-c1nc2ccccc2o1`, the Potency was inactive: > 76.9 µM.

Turning to `CC(=O)OC1CC(C)(C)N(OC(=O)c2ccccc2)C(C)(C)C1`, the Potency was inactive: > 76.9 µM.

In the case of `Cc1occc1-c1nc(-c2ccncc2)no1`, the Potency is inactive: > 76.9 µM.

With `COc1ccccc1NC(=O)CSc1nc2ccccc2c(=O)n1CCNC(C)=O`, the Potency was inactive: > 76.9 µM.

Take `CCOc1ccc(-n2c(=O)c3sccc3n(CC(=O)NCc3ccco3)c2=O)cc1`: the Potency is inactive: > 76.9 µM.

`CCOC(=O)N1CCC2(CC1)C(C#N)=C(N)Oc1c2sc2nc(C)cc(C)c12`: the Potency is inactive: > 76.9 µM.

Take `COc1ccccc1C1(CC(=O)O)CCOC(C(C)C)C1` (configuration not stated): the Potency is inactive: > 76.9 µM.

Turning to `CCCCNC(=O)OCCNC(=O)NC`, the Potency is inactive: > 76.9 µM.

As for `CC1(C)CC(=O)c2c(noc2-c2ccccc2)C1`, the Potency was inactive: > 76.9 µM.

For the compound `Cn1cccc1C(=O)OCc1cc(Cl)cc2c1OCOC2`, the Potency is active: 12.2 µM.

Take `Cc1nc(C)n(CC(O)COc2ccc3cc(Br)ccc3c2)n1` (configuration not stated): the Potency is inactive: > 76.9 µM.

As for `O=C(Cn1cnc2c(nnn2Cc2ccc(F)cc2)c1=O)NCC1CCCO1` (configuration not stated), the Potency was inactive: > 76.9 µM.

In the case of `COc1ccc(CCNC(=O)C2CCCN2C(=O)Nc2cccc(C(C)=O)c2)cc1OC` (configuration not stated), the Potency was inactive: > 76.9 µM.

As for `Cc1cccn2c(=O)c3cc(C(=O)N4c5ccccc5CC4C)n(C)c3nc12` (configuration not stated), the Potency was inactive: > 76.9 µM.

Take `CC(C)COc1ccc(-c2nnc(-c3ccco3)o2)cc1`: the Potency is inactive: > 76.9 µM.

Regarding `O=C(CNC(=O)c1cccs1)NCCN1CCN(c2ccccc2F)CC1`, the Potency is inactive: > 76.9 µM.

As to `CNC(=O)c1cc2cccc(OC)c2oc1=O`, the Potency is inactive: > 76.9 µM.

For `C/C(Cl)=C/Cn1c(SC(C)C)nc2c1c(=O)[nH]c(=O)n2C`, the Potency is inactive: > 76.9 µM.

In the case of `Cc1cc(C(=O)CCC(=O)N2CCN(S(=O)(=O)c3cccs3)CC2)c(C)s1`, the Potency was inactive: > 76.9 µM.

For `Cc1onc(-c2ccccc2Cl)c1C(N)=O`, the Potency was inactive: > 76.9 µM.

`COCON1C(=O)CN(C(C)=O)C1c1ccc(Cl)cc1Cl` (configuration not stated): the Potency is inactive: > 76.9 µM.

Take `O=C(CN(CCc1ccccc1)C(=O)Cn1nnc(-c2cccs2)n1)NCc1ccco1`: the Potency result is “inactive”.

In the case of `CCc1cccc(C)c1NC(=O)CSc1nnc(-c2cc3cc(Br)ccc3o2)n1CC`, the Potency is inactive: > 76.9 µM.

In the case of `O=C(CCNS(=O)(=O)c1ccc(Br)cc1)NCc1ccc2c(c1)OCO2`, the Potency was inactive: > 76.9 µM.

In the case of `COc1cc(C(=O)Nc2oc(-c3ccccc3)c(-c3ccccc3)c2C#N)cc(OC)c1OC`, the Potency was inactive: > 76.9 µM.

With `O=C1Nc2ccccc2C12OCC(COc1ccc(Cl)cc1)O2` (configuration not stated), the Potency was inactive: > 76.9 µM.

Turning to `COc1ccc(CNC(=O)CSc2ncnc3nc[nH]c23)cc1`, the Potency result was “inactive”.

In the case of `N#CC(C(=O)NCc1ccco1)c1nc2ccccc2nc1N1CCOCC1` (configuration not stated), the Potency is inactive: > 76.9 µM.

As for `Cc1oc2ncnc(N)c2c1C`, the Potency was inactive: > 76.9 µM.

For `Cc1cc(C(=O)Nc2sc(C)c(-c3ccc(F)cc3)c2C(N)=O)no1`, the Potency was inactive: > 76.9 µM.

Consider `Cc1cc(C)n(Cc2ccc(C(=O)NCc3ccco3)o2)n1`, for which the Potency is inactive: > 76.9 µM.

For the compound `CCC(C)[C@H](NC(=O)NCC1CCCO1)C(=O)OC` (some centres not stated), the Potency was inactive: > 76.9 µM.

For `O=C(c1c[nH]c2ccc(S(=O)(=O)N3CCOCC3)cc2c1=O)N1CCN(c2ccccn2)CC1`, the Potency is inactive: > 76.9 µM.

Take `CCCCCOc1ccc(OC(=O)c2ccncc2)cc1`: the Potency is inactive: > 76.9 µM.

Regarding `O=C(Cn1nnc(-c2ccccc2)n1)NCc1ccc2c(c1)OCO2`, the Potency is inactive: > 76.9 µM.

`Nc1nonc1-c1nc2ccccc2[nH]1`: the Potency was inactive: > 76.9 µM.

Take `CCOC(=O)c1cnc(Nc2nc3ccccc3o2)nc1CSc1ncccn1`: the Potency was inactive: > 76.9 µM.

Turning to `COc1ccccc1CN1CCCC(C(=O)N(C)Cc2ccccc2)C1` (configuration not stated), the Potency was inactive: > 76.9 µM.

For `O=C(CSc1nnnn1-c1ccc(Cl)cc1)NC(=O)Nc1ccc2c(c1)OCCO2`, the Potency was inactive: > 76.9 µM.

As for `CCC1CCCCN1S(=O)(=O)c1ccc2c(c1)CCN2C(=O)C1CCC1` (configuration not stated), the Potency was inactive: > 76.9 µM.

With `O=C(Cn1ccc2ccccc2c1=O)N1CCN(Cc2ccc3c(c2)OCO3)CC1`, the Potency is inactive: > 76.9 µM.

On to `O=C1CC(c2ccco2)Cc2nc(Nc3ccc(F)cc3)ncc21` (configuration not stated), for which the Potency is inactive: > 76.9 µM.

As for `O=C(CCNS(=O)(=O)c1ccc(Br)s1)N1CCCCC1`, the Potency is inactive: > 76.9 µM.

Turning to `Cn1c(=O)c2c(nc(NCCO)n2C)n(C)c1=O`, the Potency was inactive: > 76.9 µM.

Regarding `COC(=O)c1c(NC(=O)CC2NCCNC2=O)sc2c1CCCC2` (configuration not stated), the Potency is inactive: > 76.9 µM.

In the case of `Cc1ccc2c(c1)N(CCC(=O)NCCN1CCOCC1)C(=O)CO2`, the Potency is inactive: > 76.9 µM.

In the case of `CCCNC(=O)CN(C)C(=O)c1n[nH]c2ccccc12`, the Potency is inactive: > 76.9 µM.

For `CCOC(=O)N1CCC(N(CCOC)C(=O)Nc2ccc(Cl)cc2)CC1`, the Potency is inactive: > 76.9 µM.

For `CS(=O)(=O)NCc1nnc(SCC(=O)NC2CCCCC2)n1-c1ccc(F)cc1`, the Potency was inactive: > 76.9 µM.

On to `Cc1cc(Nc2ccccc2)n(-c2nc3ccccc3[nH]2)n1`, for which the Potency is inactive: > 76.9 µM.

With `CS(=O)(=O)NCCOc1ccc(S(=O)(=O)N2CCCc3ccccc32)cc1`, the Potency was inactive: > 76.9 µM.

For `Cc1csc2nc(CSc3nc4ccccc4o3)c(Br)n12`, the Potency is inactive: > 76.9 µM.

On to `COc1ccc(Cl)cc1NC(=O)CSc1nncn1-c1cccnc1`, for which the Potency is inactive: > 76.9 µM.

As for `CSc1ncc(Cl)c(C(=O)Nc2ccc(S(=O)(=O)N3CCOCC3)cc2)n1`, the Potency was inactive: > 76.9 µM.

On to `Cc1ccc(C)c(N2CCN(C(=O)c3ccc(CS(=O)(=O)c4ccccc4C)o3)CC2)c1`, for which the Potency result is “inactive”.

For `CCOC(=O)c1sc(C)c(C(N)=O)c1NC1=NCCCCC1`, the Potency entry is “inactive”.

Consider `C=C(C)COc1ccc(-c2n[nH]c(C)c2Oc2ccccc2OC)c(O)c1`, for which the Potency was inactive: > 76.9 µM.

For the compound `CC1(C)OC(=O)C(=CNCC(O)c2ccccc2)C(=O)O1` (configuration not stated), the Potency is inactive: > 76.9 µM.

As for `CC(C)N=C(NC#N)SCC(=O)NC(C)(C)C`, the Potency is inactive: > 76.9 µM.

Consider `O=c1oc(-c2ccco2)nc2c1cnn2-c1ccccc1`, for which the Potency is inactive: > 76.9 µM.

On to `COc1cccc(NC(=O)C2CC(=O)N(C)C(=Nc3cccc(F)c3)S2)c1` (configuration not stated), for which the Potency was inactive: > 76.9 µM.

As to `COC(=O)[C@H]1C2CCC(C(=O)OC)(CC2)[C@H]1C(=O)OC`, the Potency was inactive: > 76.9 µM.

On to `CCN(CC)Cc1nc2c(c(=O)[nH]1)C1(CCCCC1)Cc1ccccc1-2`, for which the Potency is inactive: > 76.9 µM.

With `O=C(N/C(=N\O)c1ccccc1)Nc1ccc(Cl)cc1`, the Potency was inactive: > 76.9 µM.

Turning to `COc1ccc(C(=O)NCc2nnc(SCC(=O)N3CCCCC3)o2)cc1OC`, the Potency was inactive: > 76.9 µM.

`CCS(=O)(=O)N1CCC(C(=O)NCc2ccccc2OC)CC1`: the Potency was inactive: > 76.9 µM.

On to `CNC(=O)OC(C)CNS(=O)(=O)c1ccc(C)cc1` (configuration not stated), for which the Potency was inactive: > 76.9 µM.

With `CCn1c(-c2cc(OC)c(OC)c(OC)c2)n[nH]c1=S`, the Potency was inactive: > 76.9 µM.

As to `O=C(Nc1ccc2oc(-c3ccncc3)nc2c1)c1c(F)c(F)c(F)c(F)c1F`, the Potency was inactive: > 76.9 µM.

As for `Cn1cccc1C(C(=O)NC1CCCCC1)N(C(=O)Cc1cccs1)C1CC1` (configuration not stated), the Potency was inactive: > 76.9 µM.

Take `COCCn1c(SCC(=O)N(C(C)C)C(C)C)nnc1-c1cc2ccccc2cc1O`: the Potency is inactive: > 76.9 µM.

For `O=C(Nc1ccccc1-c1ccccc1)c1cnccn1`, the Potency is inactive: > 76.9 µM.

`CCc1ccccc1NC(=O)c1ccoc1C`: the Potency is inactive: > 76.9 µM.

Turning to `Cc1csc2ncc(C(=O)Nc3ccon3)c(=O)n12`, the Potency was inactive: > 76.9 µM.

On to `COC(=O)c1nnn(-c2nonc2N)c1CSc1ccccn1`, for which the Potency is inactive: > 76.9 µM.

Regarding `Cc1cc(N2CCCCC2)nc(SCc2ccc(C#N)cc2)n1`, the Potency is inactive: > 76.9 µM.

`CC(C)COC(=O)Cn1cnc2ccc(Br)cc2c1=O`: the Potency is inactive: > 76.9 µM.

As for `Cc1ccc(C)c2[nH]c(=O)c(CN(CCN3CCCC3)C(=O)Nc3ccc(F)cc3)cc12`, the Potency is inactive: > 76.9 µM.

With `CCOc1ccc(Nc2nc(Cc3nnc(SCC(=O)NCC4CCCO4)n3C)cs2)cc1` (configuration not stated), the Potency is inactive: > 76.9 µM.

For the compound `C[C@H](C(=O)O)c1n[nH]c(=O)c2ccccc12`, the Potency is inactive: > 76.9 µM.

Consider `CCSc1nnc(NC(=O)CSc2nnc(Cc3cccn3C)n2-c2ccc(F)cc2)s1`, for which the Potency is inactive: > 76.9 µM.

Take `O=C(O)c1ccc(S(=O)(=O)N2CCC(c3nc(-c4ccccc4Cl)no3)CC2)cc1`: the Potency is inactive: > 76.9 µM.

As for `CCC(=O)N1CCc2cc(S(=O)(=O)NCCC(=O)NC3CCCc4ccccc43)ccc21` (configuration not stated), the Potency is inactive: > 76.9 µM.
